{"source": "patent US20250243263A1", "about": "(VOYAGER THERAPEUTICS, published 2025)", "binders": {"B1": {"name": "VY002 (antibody, V domains shown)", "VH": "[in this place about 100 residues]DYPKDVWGQGTTVTVSS", "VL": "DIVMTQSPDSLAVSLGERATINCKSSQSVLYSSKNKNYLAWYQQKPGQPPKLLIYWASTRESGVPDRFSGSGSGTDFTLAISSLQAEDVAVYYCQQYYSSPYTFGQGTKLEIK"}}, "key": {"[1]": {"biological_target": "T1, iPHF (UniProt P10636-8 2-441, limits assumed)", "T1 construct": "also called iPHF tau", "assay": "BLI (Octet), antibody on biosensor tip, iPHF in solution", "experimental": "Anti-human tau antibodies were assessed for affinity for iPHF by Octet (ForteBio, Menlo Park, CA) analysis. A set of recombinant human IgG1 antibodies were prepared with clone-specific variable domain pairs selected from those presented in Table 1 and human IgG1 constant domains. Candidate antibodies were immobilized on biosensor tips (ForteBio) in kinetic buffer (ForteBio). Biosensor tips were then washed before introduction of a solution of iPHF in kinetic buffer for analysis of association and dissociation with candidate antibodies."}, "[2]": {"biological_target": "enriched paired helical filament tau protein (ePHF; sarkosyl insoluble tau) (human, UniProt P10636 2-758)", "assay": "direct ELISA, ePHF coated", "experimental": "A set of recombinant human IgG1 antibodies were prepared with clone-specific variable domain pairs selected from those presented in Table 1 and human IgG1 constant domains. These candidate antibodies were analyzed for binding to ePHF and specificity for ePHF over wild type tau by direct ELISA.\nFor direct ePHF and wildtype tau ELISA, plates were first coated with ePHF or wild type tau. Antigen solutions were prepared in PBS and 50 μL were pipetted into each well. Plates were covered and incubated for one hour at 37° C. or overnight at 4° C. Plates were then washed and blocked by addition of 150 μl of blocking buffer to each well and incubated one hour at room temperature. Plates were then washed before addition of serially diluted candidate antibody samples prepared in blocking buffer. Detection of candidate antibody binding was carried out by washing plates and adding a solution of enzyme-labeled secondary antibody in blocking buffer to each well. Secondary antibody binding was detected by addition of substrate and spectrophotometric analysis of resulting reaction product."}, "[3]": {"biological_target": "T2, Tau204-222 phospho-peptide (pT212) (human, also: SCBiot-(dPEG4) label)", "T2 peptide": "GTPGSRSR[pT]PSLPTPPTRE", "assay": "one point ELISA", "description": "(§1) One-point ELISA was used to determine differential binding based on the individual phosphorylation patterns of each peptide. OD values (450 nm) were collected (as shown in Table 13), where a stronger positive signal is shown as a higher OD value, which is indicative of increased binding."}, "[4]": {"biological_target": "T3, Tau204-222 phospho-peptide (pS214) (human, also: SCBiot-(dPEG4) label)", "T3 peptide": "GTPGSRSRTP[pS]LPTPPTRE", "assay": "one point ELISA", "description": "as §1"}, "[5]": {"biological_target": "T4, Tau204-222 phospho-peptide (pT212/pS214/pT217) (human, also: SCBiot-(dPEG4) label)", "T4 peptide": "GTPGSRSR[pT]P[pS]LP[pT]PPTRE", "assay": "one point ELISA", "description": "as §1"}, "[6]": {"biological_target": "T5, Tau204-222 phospho-peptide (pT217) (human, also: SCBiot-(dPEG4) label)", "T5 peptide": "GTPGSRSRTPSLP[pT]PPTRE", "assay": "one point ELISA", "description": "as §1"}, "[7]": {"biological_target": "T6, Tau204-222 phospho-peptide (pS214/pT217) (human, also: SCBiot-(dPEG4) label)", "T6 peptide": "GTPGSRSRTP[pS]LP[pT]PPTRE", "assay": "one point ELISA", "description": "as §1"}, "[8]": {"biological_target": "T7, Tau204-222 phospho-peptide (pT212/pT217) (human, also: SCBiot-(dPEG4) label)", "T7 peptide": "GTPGSRSR[pT]PSLP[pT]PPTRE", "assay": "one point ELISA", "description": "as §1"}, "[9]": {"biological_target": "T8, Tau204-222 phospho-peptide (pT212/pS214) (human, also: SCBiot-(dPEG4) label)", "T8 peptide": "GTPGSRSR[pT]P[pS]LPTPPTRE", "assay": "one point ELISA", "description": "as §1"}}, "note": "Where no end group is shown, it is not given here. [ ]: non-standard residue; d: D form. pT = C[C@@H](OP(=O)(O)O)[C@H](N)C(=O)O; pS = N[C@@H](COP(=O)(O)O)C(=O)O"}
{"binder": "B1", "values": [{"measurement": "Kd", "setting": "[1]", "result": 1, "unit": "nM"}, {"measurement": "EC50", "setting": "[2]", "result": 0.03, "unit": "nM"}, {"measurement": "OD (450 nm)", "setting": "[3]", "result": 0.055, "unit": "OD450"}, {"measurement": "OD (450 nm)", "setting": "[4]", "result": 0.058, "unit": "OD450"}, {"measurement": "OD (450 nm)", "setting": "[5]", "result": 0.06, "unit": "OD450"}, {"measurement": "OD (450 nm)", "setting": "[6]", "result": 0.068, "unit": "OD450"}, {"measurement": "OD (450 nm)", "setting": "[7]", "result": 0.062, "unit": "OD450"}, {"measurement": "OD (450 nm)", "setting": "[8]", "result": 0.06, "unit": "OD450"}, {"measurement": "OD (450 nm)", "setting": "[9]", "result": 0.055, "unit": "OD450"}]}
